The antibiotic and cytotoxicity screens of Wong et al. (2023)
The other results are listed elsewhere or left out.

Experiments:
HSkMC = human skeletal muscle cells; assay: cytotoxicity call (relative viability < 0.9); conditions: 10 µM
HepG2 = assay: cytotoxicity call (relative viability < 0.9); conditions: 10 µM
S. aureus RN4220 = assay: growth inhibition call (relative growth <= 0.2); conditions: 50 µM

`O=C(C[C@@H]1C[C@@H]2c3cc(NC(=O)Nc4ccc(C(F)(F)F)cc4)ccc3O[C@@H]2[C@H](CO)O1)NCc1cc(F)ccc1F` was tested, and the cytotoxicity call (HSkMC) was “inactive”, the cytotoxicity call (HepG2) was “inactive” and the growth inhibition call (S. aureus RN4220) was “inactive”.
For `CC1=NN(C)C(=O)CC1`, the cytotoxicity call (HSkMC) was “inactive”, the cytotoxicity call (HepG2) was “inactive” and the growth inhibition call (S. aureus RN4220) was “inactive”.
In the case of `COc1ccc(NC(=O)Nc2ccc3c(c2)C(=O)N([C@@H](C)CO)C[C@@H](C)[C@H](CN(C)C(=O)Nc2cccc4ccccc24)OCCCC[C@@H](C)O3)cc1`, the cytotoxicity call (HSkMC) is reported as “inactive”, the cytotoxicity call (HepG2) is reported as “inactive” and the growth inhibition call (S. aureus RN4220) is reported as “inactive”.
With `C#CCN1C(=O)N(C(=O)c2ccccc2)[C@@H]2c3ccccc3O[C@@]1(COCc1ccc(OC)cc1)[C@@H]2CO[Si](C)(C)C(C)(C)C` the cytotoxicity call (HSkMC) was “inactive”, the cytotoxicity call (HepG2) was “inactive” and the growth inhibition call (S. aureus RN4220) was “inactive”.
In the case of `C[C@H]1CN([C@@H](C)CO)C(=O)c2cc(C#CC3(O)CCCC3)cnc2O[C@H]1CN(C)C(=O)Nc1ccc2c(c1)OCO2`, the cytotoxicity call (HSkMC) is reported as “inactive”, the cytotoxicity call (HepG2) is reported as “inactive” and the growth inhibition call (S. aureus RN4220) is reported as “inactive”.
`Cn1ncc(Br)c1C(=O)NN` was tested, and the cytotoxicity call (HSkMC) was “inactive”, the cytotoxicity call (HepG2) was “inactive” and the growth inhibition call (S. aureus RN4220) was “inactive”.
In the case of `COc1ccc(S(=O)(=O)Nc2ccc3c(c2)C(=O)N([C@H](C)CO)C[C@H](C)[C@H](CN(C)C(=O)Nc2ccc(C(F)(F)F)cc2)OCCCC[C@H](C)O3)cc1`, the cytotoxicity call (HSkMC) is reported as “inactive”, the cytotoxicity call (HepG2) is reported as “inactive” and the growth inhibition call (S. aureus RN4220) is reported as “inactive”.
In the case of `C[C@H]1CN([C@@H](C)CO)C(=O)Cc2cc(NC(=O)Cn3cnnn3)ccc2O[C@H]1CN(C)CC1CCCCC1`, the cytotoxicity call (HSkMC) is reported as “inactive”, the cytotoxicity call (HepG2) is reported as “inactive” and the growth inhibition call (S. aureus RN4220) is reported as “inactive”.
For `C[C@H]1CN([C@@H](C)CO)S(=O)(=O)c2ccc(C3=CCCCC3)cc2O[C@@H]1CN(C)Cc1cncnc1`, the cytotoxicity call (HSkMC) was “inactive”, the cytotoxicity call (HepG2) was “inactive” and the growth inhibition call (S. aureus RN4220) was “inactive”.
In the case of `CC(C)NC(=O)N(C)C[C@H]1Oc2ccc(NC(=O)Cn3cnnn3)cc2CC(=O)N([C@H](C)CO)C[C@@H]1C`, the cytotoxicity call (HSkMC) is reported as “inactive”, the cytotoxicity call (HepG2) is reported as “inactive” and the growth inhibition call (S. aureus RN4220) is reported as “inactive”.
In the case of `C[C@@H]1CN([C@@H](C)CO)C(=O)c2cc(NC(=O)CCCN(C)C)ccc2O[C@@H]1CN(C)Cc1ccc(Oc2ccccc2)cc1`, the cytotoxicity call (HSkMC) is reported as “inactive”, the cytotoxicity call (HepG2) is reported as “active” and the growth inhibition call (S. aureus RN4220) is reported as “inactive”.
With `C[C@H](CO)N1C[C@H](C)[C@H](CN(C)S(=O)(=O)c2cn(C)cn2)Oc2ccc(NC(=O)C3CCCCC3)cc2C1=O` the cytotoxicity call (HSkMC) was “inactive”, the cytotoxicity call (HepG2) was “inactive” and the growth inhibition call (S. aureus RN4220) was “inactive”.
`C[C@@H](O)C#Cc1ccc2c(c1)O[C@@H](CN(C)C(=O)Cc1ccccn1)[C@@H](C)CN([C@@H](C)CO)S2(=O)=O` was tested, and the cytotoxicity call (HSkMC) was “inactive”, the cytotoxicity call (HepG2) was “inactive” and the growth inhibition call (S. aureus RN4220) was “inactive”.
With `COCC(=O)Nc1ccc2c(c1)C(=O)N(C)C[C@@H](OC)[C@@H](C)CN(C(=O)Cc1cccnc1)[C@H](C)CO2` the cytotoxicity call (HSkMC) was “inactive”, the cytotoxicity call (HepG2) was “inactive” and the growth inhibition call (S. aureus RN4220) was “inactive”.
In the case of `CCS(=O)(=O)N1CC[C@]2(CC1)CN([C@H](CO)c1[nH]c3cc(ccc3c12)OC)C(=O)Nc1c(noc1C)C`, the cytotoxicity call (HSkMC) is reported as “inactive”, the cytotoxicity call (HepG2) is reported as “inactive” and the growth inhibition call (S. aureus RN4220) is reported as “inactive”.
`CCc1nc2ccc(C(=O)Nc3cccc(OCC(=O)N(C)C)c3)cn2c1N(C)Cc1cc2ccccc2s1` was tested, and the cytotoxicity call (HSkMC) was “inactive”, the cytotoxicity call (HepG2) was “inactive” and the growth inhibition call (S. aureus RN4220) was “inactive”.
With `Cc1noc(C)c1S(=O)(=O)Nc1ccc2c(c1)C(=O)N([C@H](C)CO)C[C@@H](C)[C@H](CN(C)Cc1ccc(Oc3ccccc3)cc1)O2` the cytotoxicity call (HSkMC) was “inactive”, the cytotoxicity call (HepG2) was “inactive” and the growth inhibition call (S. aureus RN4220) was “inactive”.
With `C[C@H]1CN([C@@H](C)CO)S(=O)(=O)c2ccc(C3=CCCCC3)cc2O[C@H]1CN(C)S(=O)(=O)c1cn(C)cn1` the cytotoxicity call (HSkMC) was “inactive”, the cytotoxicity call (HepG2) was “inactive” and the growth inhibition call (S. aureus RN4220) was “inactive”.
In the case of `N#C[C@H](NCCO)c1ccc(F)cc1`, the cytotoxicity call (HSkMC) is reported as “inactive”, the cytotoxicity call (HepG2) is reported as “inactive” and the growth inhibition call (S. aureus RN4220) is reported as “inactive”.
In the case of `COc1cccc(S(=O)(=O)N(C)C[C@@H]2Oc3ncc(C#CC(C)C)cc3C(=O)N([C@@H](C)CO)C[C@H]2C)c1`, the cytotoxicity call (HSkMC) is reported as “inactive”, the cytotoxicity call (HepG2) is reported as “inactive” and the growth inhibition call (S. aureus RN4220) is reported as “inactive”.
With `CN1CCN(C(=O)C[C@H]2C=C[C@@H](NC(=O)c3ccc4c(c3)OCO4)[C@H](CO)O2)CC1` the cytotoxicity call (HSkMC) was “inactive”, the cytotoxicity call (HepG2) was “inactive” and the growth inhibition call (S. aureus RN4220) was “inactive”.
With `COc1cc(C)nc(SCC(N)=O)n1` the cytotoxicity call (HSkMC) was “inactive”, the cytotoxicity call (HepG2) was “inactive” and the growth inhibition call (S. aureus RN4220) was “inactive”.
For `C[C@@H]1CN([C@@H](C)CO)C(=O)c2c(c3ccccc3n2C)-c2ccccc2CO[C@@H]1CN(C)Cc1cccc(C(=O)O)c1`, the cytotoxicity call (HSkMC) was “inactive”, the cytotoxicity call (HepG2) was “inactive” and the growth inhibition call (S. aureus RN4220) was “inactive”.
With `C[C@H]1CN([C@@H](C)CO)C(=O)c2cccc(NC(=O)Nc3ccc(F)cc3)c2O[C@H]1CN(C)CC1CCCCC1` the cytotoxicity call (HSkMC) was “inactive”, the cytotoxicity call (HepG2) was “inactive” and the growth inhibition call (S. aureus RN4220) was “inactive”.
`C[C@@H]1CN([C@H](C)CO)C(=O)c2cc(NC(=O)Nc3ccc(F)cc3)ccc2O[C@@H](C)CCCCO[C@@H]1CN(C)Cc1ccncc1` was tested, and the cytotoxicity call (HSkMC) was “inactive”, the cytotoxicity call (HepG2) was “inactive” and the growth inhibition call (S. aureus RN4220) was “inactive”.
With `C=c1cc(C)ccc1=C1NN=C(N)O1` the cytotoxicity call (HSkMC) was “inactive”, the cytotoxicity call (HepG2) was “inactive” and the growth inhibition call (S. aureus RN4220) was “inactive”.
With `COc1cccc(S(=O)(=O)N(C)C[C@H]2Oc3ncc(C#CCC(C)C)cc3C(=O)N([C@H](C)CO)C[C@H]2C)c1` the cytotoxicity call (HSkMC) was “inactive”, the cytotoxicity call (HepG2) was “inactive” and the growth inhibition call (S. aureus RN4220) was “inactive”.
